Screen size: about 310,000 compounds; about 14,000 (4.5%) showed an effect of 50% or more. Effects have a minus sign here. This is one part of the list.
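Also: peak tail current of the secondary pulse compared with the same well before compound.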

The target in the experiment is human ether-à-go-go-related gene (hERG) potassium channel (human, UniProt Q12809). The experiment in a line: primary screen, population patch clamp on CHO cells stably expressing hERG.
human ether-à-go-go-related gene (hERG) potassium channel, sequence (Q12809 whole entry, looked up): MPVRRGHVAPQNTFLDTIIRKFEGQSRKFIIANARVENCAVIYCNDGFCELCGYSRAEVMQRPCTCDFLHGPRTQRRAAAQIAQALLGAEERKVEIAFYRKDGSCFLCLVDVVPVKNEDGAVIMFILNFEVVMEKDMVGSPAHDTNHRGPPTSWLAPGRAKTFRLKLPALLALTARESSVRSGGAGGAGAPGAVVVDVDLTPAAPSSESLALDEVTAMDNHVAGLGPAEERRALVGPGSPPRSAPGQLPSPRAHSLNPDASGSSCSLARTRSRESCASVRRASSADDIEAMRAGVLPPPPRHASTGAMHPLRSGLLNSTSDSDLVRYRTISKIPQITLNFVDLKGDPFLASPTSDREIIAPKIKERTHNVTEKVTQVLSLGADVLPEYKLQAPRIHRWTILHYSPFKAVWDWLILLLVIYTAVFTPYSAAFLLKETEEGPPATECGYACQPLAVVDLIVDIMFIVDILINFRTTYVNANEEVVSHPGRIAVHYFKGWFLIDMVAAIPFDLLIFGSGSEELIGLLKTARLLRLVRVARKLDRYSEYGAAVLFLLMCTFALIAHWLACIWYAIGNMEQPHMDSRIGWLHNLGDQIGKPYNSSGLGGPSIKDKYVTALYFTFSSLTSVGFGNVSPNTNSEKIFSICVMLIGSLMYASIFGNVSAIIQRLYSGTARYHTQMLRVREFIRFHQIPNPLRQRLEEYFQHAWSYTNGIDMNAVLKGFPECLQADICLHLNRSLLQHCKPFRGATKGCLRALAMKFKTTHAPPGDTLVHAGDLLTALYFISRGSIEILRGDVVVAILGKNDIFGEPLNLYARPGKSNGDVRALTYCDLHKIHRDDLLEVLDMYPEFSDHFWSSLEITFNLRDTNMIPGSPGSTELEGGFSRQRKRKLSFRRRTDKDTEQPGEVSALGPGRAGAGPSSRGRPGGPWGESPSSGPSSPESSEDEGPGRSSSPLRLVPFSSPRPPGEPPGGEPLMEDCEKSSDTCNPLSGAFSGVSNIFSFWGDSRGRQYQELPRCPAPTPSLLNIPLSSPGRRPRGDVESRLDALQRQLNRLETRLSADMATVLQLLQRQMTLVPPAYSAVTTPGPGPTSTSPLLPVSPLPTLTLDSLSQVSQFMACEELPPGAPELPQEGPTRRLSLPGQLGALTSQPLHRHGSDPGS
Turning to `CCN(/C=N/c1sc2c(c1C#N)CCCCC2)CC`, the “hERG current change (%, negative = inhibition) at 10uM” value was determined as 5.56%.
Then `COC(=O)c1ccccc1NC(=O)NN1CCN(C)CC1`, with -14.5%; and `Cc1ccccc1OCC(=O)OCC(=O)NCC1CCCO1` (stereo not drawn), with 20.6%; and `Nc1cccc(-c2nnc3n2CCCCC3)c1`, with 1.48%.
On to `CC(CC(=O)Nc1ccc(S(=O)(=O)Nc2ncccn2)cc1)c1ccccc1` (stereo not drawn), for which the “hERG current change (%, negative = inhibition) at 10uM” value is on record as 6.78%.
Then `N#C/C(=C(/O)COC(=O)Cc1c[nH]c2ccccc12)c1nc2ccccc2[nH]1`, with 14.2%; and `Cc1sc(NC(=O)c2c(F)cccc2F)nc1-c1ccccc1`, with 11.9%; and `CC(C(=O)NC(C)(C)C)N1C(=O)c2cccc3cccc(c23)C1=O` (stereo not drawn), with 9.11%.
On to `O=C1C(CCCNC(=S)NCc2ccccc2)NC(=S)N1Cc1ccccc1` (stereo not drawn), for which the “hERG current change (%, negative = inhibition) at 10uM” value is on record as 2.97%.
With `COc1cnc(SCc2ccc(Cl)cc2)nc1Cl` the figure was 12.5%.
With `CCOC(=O)C1=C(C)N2C(=C(C#N)[C@@H]1c1ccc(C(=O)OC)cc1)SC[C@@]2(O)C(C)(C)C` the figure was 6.91%.
Then `N/C(=N\OC(=O)Cc1ccc(-c2ccccc2)cc1)c1cccnc1`, with -1.07%; and `N#C/C(=N\Nc1cccc(F)c1)C(=O)C1CC1`, with 13.8%.
Regarding `CCN1CCN(c2ccc(S(=O)(=O)N3CCCCC3)cc2NC(=O)COc2ccc(Cl)cc2)CC1`, the “hERG current change (%, negative = inhibition) at 10uM” value was -15.2%.
For the molecule `CN(Cc1cn(-c2ccccc2)nc1-c1ccc2c(c1)OCO2)Cc1nccn1C`, the “hERG current change (%, negative = inhibition) at 10uM” value is listed as -16.1%.
With `Cc1ccc(-c2[nH]c(=S)[nH]c(=O)c2C#N)cc1` the figure was 17.4%; with `CC1CCN(c2c(NCC3CCC(C(=O)Nc4ccccn4)CC3)c(=O)c2=O)CC1` (stereo not drawn), 16.2%.
As to `CCOc1ccc(-c2cc(C(=O)NCCCN3CCOCC3)c3ccccc3n2)cc1`, the “hERG current change (%, negative = inhibition) at 10uM” value is listed as -13.3%.
With `CCOC(=O)C(O)(NC(=O)c1cccnc1)C(F)(F)F` (stereo not drawn) the figure was 5%; with `COc1ccc(OC)c(N(C(=O)c2ccco2)C(C(=O)NC2CCCC2)c2cc(OC)c(OC)c(OC)c2)c1` (stereo not drawn), 2.89%; with `Cc1cc(C(C)(C)C)cc(S(=O)(=O)NCCO)c1C`, 4.13%.
Then `CC(C)(C)c1ccc(OC(=O)c2ccc3snnc3c2)cc1`, with 20.4%; and `CSCC[C@H](NC(=O)[C@@H]1Cc2ccccc2CN1)C(=O)NC1CCCC1`, with -4.7%.
Then `CC(C)(C)OC(=O)N1CCC(C(N)=O)CC1`, with 4.69%; and `O=C1C(=O)N(CCCN2CCOCC2)C(c2ccc(F)cc2)/C1=C(\O)c1ccc2c(c1)OCCO2` (stereo not drawn), with 12.5%; and `O=C(O)c1cccnc1SCc1cn2cc(Br)ccc2n1`, with 18.4%.
Consider `C/C(CC(=O)Nc1cccc(C(F)(F)F)c1)=N\NC(=O)c1cnccn1`, for which the “hERG current change (%, negative = inhibition) at 10uM” value was 0.101%.
`O=C(c1ccco1)N1CCN(S(=O)(=O)/C=C/c2ccccc2)CC1`: the “hERG current change (%, negative = inhibition) at 10uM” value was -38.3%.
With `COc1cccc(-c2nc(NC3CCCC3)c3ccccc3n2)c1O` the figure was 25.7%.
Then `O=C(O)CCc1ccc(-c2ccc(Br)cc2)o1`, with 16.1%; and `O=C(O)c1cccc(NC(=S)NC(=O)c2ccc(-c3ccccc3)cc2)c1`, with 24.7%.
Consider `Cc1sc2nc(CN3CCOCC3)nc(NS(=O)(=O)c3ccccc3)c2c1C`, for which the “hERG current change (%, negative = inhibition) at 10uM” value came to 9.1%.
In the case of `Cc1cc(C(=O)NNC(=S)Nc2ccccc2)nn1C`, the “hERG current change (%, negative = inhibition) at 10uM” value was 9.4%.
As to `COc1ccc(NC(=S)NCCc2ccc(S(N)(=O)=O)cc2)c(OC)c1`, the “hERG current change (%, negative = inhibition) at 10uM” value stood at 9.47%.
Then `CC(C(O)c1ccc(O)cc1)N1CCC(Cc2ccccc2)CC1.O=C(O)C(O)C(O)C(=O)O` (stereo not drawn), with -71.4%.
For the molecule `CCOc1cccc(NC(=O)Cc2cccs2)c1`, the “hERG current change (%, negative = inhibition) at 10uM” value was -0.0914%.
On to `CN(C)c1ccc(/C=C(\NC(=O)c2ccccc2)C(=O)NCc2ccncc2)cc1`, for which the “hERG current change (%, negative = inhibition) at 10uM” value is -12.8%.
As to `Cc1nn(CCC(=O)N2CCN(S(=O)(=O)c3ccc(Cl)cc3)CC2)c(C)c1C`, the “hERG current change (%, negative = inhibition) at 10uM” value was -3.75%.
Then `COc1ccc(CN(C)CC(=O)NC(=O)NCc2ccccc2)cc1OC`, with 14.8%.
With `COC(=O)c1ccc(OCC(O)CN(CC(C)C)CC(C)C)cc1` (stereo not drawn) the figure was -4.37%; with `CCOC(=O)N/N=C/c1cc(C)n(-c2ccccc2)c1C`, 8.33%; with `CCOc1ccccc1C(=O)OC(C)C(=O)Nc1ccc(S(=O)(=O)N2CCCC2)cc1` (stereo not drawn), -15.9%.
For the molecule `C/C(=N\N=C(N)N)c1ccc(Cl)c(Cl)c1.CC(=O)O`, the “hERG current change (%, negative = inhibition) at 10uM” value is reported as -13.3%.
With `NC(=O)/C(=N\O)c1ccccc1` the figure was -20.3%; with `Cc1ccc(C)n1-c1ccc(N2CCOCC2)c(Br)c1`, 1.65%; with `CC(C(=O)Nc1nccs1)N1C(=O)C2CC=CCC2C1=O` (stereo not drawn), 1.3%.
With `O=C(c1cccn2c(=O)c3ccc(Cl)cc3nc12)N1CCC2(CC1)OCCO2` the figure was -11.2%; with `Nc1ccc(S(=O)(=O)Nc2nccc(/C=C/c3ccccc3F)n2)cc1`, 23.4%.
For `Cc1cc(NC(=O)COC(=O)C2CC(=O)N(c3ccc(C)c(Cl)c3)C2)no1` (stereo not drawn), the “hERG current change (%, negative = inhibition) at 10uM” value was found to be 5.29%.
With `COc1cnc(-c2ccccn2)nc1Oc1ccc(Cl)cc1` the figure was -0.157%.
Then `CCCCNC(=O)COC(=O)c1ccc(NS(=O)(=O)c2ccc3c(c2)OCCO3)cc1`, with -4.15%; and `O=C(Nc1ccc(Cl)c(Cl)c1)Nc1ccccc1NS(=O)(=O)c1cccs1`, with 23.8%.
Then `C1CN(CC23CC4CC(CC(C4)C2)C3)CCO1.Cl`, with 18.2%; and `Cc1cccc(/C(N)=N/OC(=O)c2ccncc2)c1`, with 4.17%.
Take `Cc1ccccc1OCC(O)CN1CCN(CC(O)COc2ccccc2C)CC1` (stereo not drawn): the “hERG current change (%, negative = inhibition) at 10uM” value is -81.6%.
Then `COCCN1C(=O)c2oc3ccccc3c(=O)c2C1c1ccc(OC)c(OC)c1` (stereo not drawn), with -0.211%.
Then `CC(C)(C)OC(=O)NC1CCN(S(=O)(=O)c2ccc3c(c2)OCCO3)CC1`, with 2.78%.
